Measurements: the supplement of paper PMC8728848
Some of the results follow.

Columns and labels:
Assay in all cases: glycan array binding signal (z-score within array); higher = stronger binding
Settings in all cases: glycan notation: IUPAC condensed, linker removed
[1] = biological target: Gal(b1-4)GlcNAc(b1-3)Gal(b1-4)GlcNAc(b1-3)[Gal(b1-4)GlcNAc(b1-3)Gal(b1-4)GlcNAc(b1-6)]GalNAc
Procedure, shortened: (§1)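 Columns mapping to the same glycan were averaged after glycan names were converted to IUPAC-condensed notation. The data come from 3228 arrays in the Consortium for Functional Glycomics database, limited to those with an available protein sequence. Binding is reported as a within-array Z-score averaged across arrays of one protein sequence and across linkers.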

[2] = biological target: Gal(b1-4)GlcNAc(b1-3)Gal(b1-4)GlcNAc(b1-6)[Gal(b1-3)]GalNAc
Procedure, shortened: as §1

[3] = biological target: Gal(b1-4)GlcNAc(b1-3)Gal(b1-4)[Fuc(a1-3)]GlcNAc(b1-3)Gal(b1-4)[Fuc(a1-3)]GlcNAc
Procedure, shortened: as §1

[4] = biological target: Gal(b1-4)GlcNAc(b1-3)GalNAc
Procedure, shortened: as §1

[5] = biological target: Gal(b1-4)GlcNAc(b1-3)[Fuc(a1-3)GlcNAc(b1-6)]Gal(b1-4)Glc
Procedure, shortened: as §1

[6] = biological target: Gal(b1-4)GlcNAc(b1-3)[Gal(b1-4)GlcNAc(b1-6)]Gal(b1-4)GlcNAc
Procedure, shortened: as §1

[7] = biological target: Gal(b1-4)GlcNAc(b1-3)[GlcNAc(b1-6)]Gal(b1-4)GlcNAc
Procedure, shortened: as §1

[8] = biological target: Gal(b1-4)GlcNAc(b1-6)Gal(b1-4)GlcNAc
Procedure, shortened: as §1

[9] = biological target: Gal(b1-4)GlcNAc(b1-6)GalNAc
Procedure, shortened: as §1

[10] = biological target: Gal(b1-4)GlcNAc(b1-6)[Gal(b1-3)]GalNAc
Procedure, shortened: as §1

[11] = biological target: Gal(b1-4)GlcNAc(b1-6)[Gal(b1-4)GlcNAc(b1-3)]GalNAc
Procedure, shortened: as §1

Gal(b1-4)GlcNAc6P = biological target: Gal(b1-4)GlcNAc6P
Procedure, shortened: as §1

Gal(b1-6)Gal = biological target: Gal(b1-6)Gal
Procedure, shortened: as §1

Gal3S(b1-3)GalNAc = biological target: Gal3S(b1-3)GalNAc
Procedure, shortened: as §1

Gal3S(b1-3)GlcNAc = biological target: Gal3S(b1-3)GlcNAc
Procedure, shortened: as §1

B1: CC1G-10077 (Coprinopsis cinerea), A8NDT7 (protein)
chain: MALNEGVYWIRNSRFTNKVLDLDAANVAKGTSILDFNEHGTFNENHNQLWIVERFQSRDTYLIRSVHSNLVLDLSQGLSANGTPILCWTQHGGTNQQWRIEWVKDDNKTPLYRIVSVATGTAISHNEDDSSAYTVAWSVDDGPKQLWSFDPFVTPLLYRLRVKSTSRVLDLAAASADNGTLALAWEQHTAITKRNQLWWLPYRSGAEEYTIQCLETSTVADLSGGNSGNGTPIYGWQSHGGRNQQWKFEPTSDSGDYYHIKNVEGGSVMDAYMNDSQKRVGGWSNNGGDNQKWLLDPLPSPGPGWVLIQNGGTGKFLCSTPSGDIGTADGPETVYDYSVQWRFIQREYTGVYHVVNRATGAYLRQIGTSMPSIGLAEENDDELKDWWMLETYDNSEIGLASIISRWTGNVLDHYGGVSVQALDNNTENSYRSWAIIPARDWLTSFSLVNGQGGLCLAAQYAREETRLSTTANVNDFHAQWVFRKPSGSSGYTIQNKYNNHYVGGTSARWELVVCCNKYFGIRNTSTQKYLAIEDGQVTFQDQDMTDRKQCWELCSGRATDTSGNDYDLIYMDDDLLEVMIPWVGDKQGDLKHYIEKRATKKPPKDKGGWQLPAAGLIKKPKFNDIRQLLQELIEQWEWDVVNEEREQIQTLVSIDEAEARRLLGRRPHPDIVAAYQRSRSSTLFRIDRQGYFNIAGDRYVNIQGQYGDDSYFHIALPVGVRFGREQIRRFLRDSLDRSTSVTITPTTCKPPSGGPDYNRDPDSDGDNSWIKWTIAVVGTSAIKHSEL
- glycan array binding signal (z-score) [1]: 0.93
- glycan array binding signal (z-score) [2]: 0.529
- glycan array binding signal (z-score) [3]: 1.72
- glycan array binding signal (z-score) [4]: 0.365
- glycan array binding signal (z-score) [5]: 0.973
- glycan array binding signal (z-score) [6]: 1.18
- glycan array binding signal (z-score) [7]: 3.85
- glycan array binding signal (z-score) [8]: 2.58
- glycan array binding signal (z-score) [9]: 1.43
- glycan array binding signal (z-score) [10]: 1.64
- glycan array binding signal (z-score) [11]: 1.48
- glycan array binding signal (z-score) (Gal(b1-4)GlcNAc6P): -0.313
- glycan array binding signal (z-score) (Gal(b1-6)Gal): -0.389
- glycan array binding signal (z-score) (Gal3S(b1-3)GalNAc): -0.424
- glycan array binding signal (z-score) (Gal3S(b1-3)GlcNAc): -0.597
